Test results published in PubChem BioAssay AID1030 (National Center for Advancing Translational Sciences (NCATS), 2008).
Out of some 220,000 compounds screened, about 16,000 (7.3%) were called active. Inconclusive means that the source gave no clear call. Such entries were picked first, then a sample of the others. Calls follow the shape of the dose curve; as a rule, active = well fitted inhibition curve with a large enough effect (not every such curve was filed as active); inconclusive = small, poorly fitted or top-dose-only effect, or another doubt; inactive = no such curve, though single readings can be large or run the other way. Potencies of inconclusive entries are left out as doubtful fits.
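For activity, negative = inhibition in this document: plate controls were no enzyme wells and a reference inhibitor.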
Potency is read from the fitted curve at half-maximal effect; tags tell the direction and shape of the fitted curve.

These compounds were tested against Aldehyde dehydrogenase 1A1 (Homo sapiens) (UniProt P00352) (assay: qHTS Assay for Inhibitors of Aldehyde Dehydrogenase 1 (ALDH1A1)). Settings: Purified ALDH1A1, NADH fluorescence, propionaldehyde substrate; series mostly up to 75.3 µM; activity, negative = inhibition: at the top concentration.
UniProt P00352, sequence (P00352 whole entry, looked up): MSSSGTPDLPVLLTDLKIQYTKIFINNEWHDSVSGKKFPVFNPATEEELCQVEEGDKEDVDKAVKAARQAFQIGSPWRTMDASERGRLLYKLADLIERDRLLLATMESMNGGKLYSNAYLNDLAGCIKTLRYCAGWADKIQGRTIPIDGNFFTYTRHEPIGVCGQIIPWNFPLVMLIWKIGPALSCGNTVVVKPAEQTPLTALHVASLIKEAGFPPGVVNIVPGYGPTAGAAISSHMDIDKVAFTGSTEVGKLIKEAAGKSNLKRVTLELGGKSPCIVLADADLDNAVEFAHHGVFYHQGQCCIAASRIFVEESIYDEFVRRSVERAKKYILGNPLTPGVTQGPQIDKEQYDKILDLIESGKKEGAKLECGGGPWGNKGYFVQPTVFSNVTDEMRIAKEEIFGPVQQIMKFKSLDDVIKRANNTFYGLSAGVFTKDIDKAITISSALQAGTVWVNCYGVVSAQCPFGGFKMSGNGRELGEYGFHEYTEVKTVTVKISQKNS
For `O=Cc1ccc(OC(=O)C2CC(=O)N(c3ccc(F)cc3)C2)cc1` (centres undefined), the Potency was inconclusive [inhibitor, partial curve].
For `S=c1[nH]nc(-c2cc3ccccc3o2)n1Cc1ccccc1`, the Potency was inconclusive [inhibitor, partial curve].
For `Cc1ccccc1C(=O)N1CCc2ccccc2C1`, the Potency was inconclusive [inhibitor, partial curve, poor fit].
With `CCOC(=O)NC(=O)COC(=O)c1cccc2ccccc12` the Potency was inconclusive [inhibitor, single point].
With `O=C(COc1ccc(Cl)cc1)Nc1c(-c2cccs2)nc2ccccn12` the Potency was inconclusive [inhibitor, partial curve].
In the case of `OCCC1CN(Cc2cnc(N3CCCC3)s2)CCN1Cc1ccccc1` (centres undefined), the Potency is reported as inconclusive [inhibitor, single point].
`O=C(N/N=C/C=C\c1ccco1)c1cccnc1` was tested, and the Potency was inconclusive [inhibitor, single point].
`Cc1ccc(C)c(OCc2nnc(NC(=O)c3ccco3)s2)c1` was tested, and the Potency was inconclusive [inhibitor, single point].
For `O=C(CN1CCN(S(=O)(=O)c2ccc(Cl)cc2)CC1)Nc1ccc(F)cc1F`, the Potency was inconclusive [inhibitor, single point].
In the case of `COc1ccc(C(=O)c2ccc(Cl)cc2Cl)cc1`, the “activity, negative = inhibition” value is reported as inactive: 1.66%.
In the case of `CC1=C/C(=N\Nc2ccccc2[N+](=O)[O-])CC(C)(C)C1`, the “activity, negative = inhibition” value is reported as inactive: -6.23%.
`Cc1nc2c(ccc3nc(NC(=O)Cc4ccccc4)sc32)s1` was tested, and the Potency was inconclusive [inhibitor, single point].
`COC(=O)c1[nH]c2cccc(OC)c2c1NC(=O)CCN1CCSCC1` was tested, and the Potency was inconclusive [inhibitor, single point].
In the case of `C/C(=N\NS(=O)(=O)c1ccc(C)c([N+](=O)[O-])c1)c1cccs1`, the Potency is reported as active: 31.6 µM.
`Cc1nc2cc(N3CCCCC3)c(NC(=O)c3cccnc3)cc2c(=O)n1Cc1ccccc1` was tested, and the Potency was inconclusive [inhibitor, partial curve, poor fit].
With `Cc1ccc(-c2ccc(=O)n(CC(=O)NCCN3C(C)CCCC3C)n2)cc1` (centres undefined) the “activity, negative = inhibition” value was inactive: -7.54%.
For `S=C(NN=C1CCCCCC1)Nc1ccc(Cl)cc1`, the Potency was inconclusive [inhibitor, single point].
In the case of `O=C(C1CCN(S(=O)(=O)c2cccc3cccnc23)CC1)N1CCCC1`, the “activity, negative = inhibition” value is reported as inactive: 6.06%.
For `CCc1ccc2[nH]c(=O)c(CN(CCCN3CCOCC3)C(=O)Nc3ccc(F)cc3)cc2c1`, the Potency was inconclusive [inhibitor, single point].
